Numbering of substitutions follows the chain as printed; changes in the protein carry UniProt numbers. This is one part of the list.

The source of these data is article PMC9911399, “Two distinct binding modes provide the RNA-binding protein RbFox with extraordinary sequence specificity”.

To fix the notation:
B1: GGUCCUG (DNA:RNA)
RNA: GGGAGACCGGAAUUCAGAUUGUCCGGUCCUGUUAAAUCCCGUCGUAGCCACCA
DNA 1: CAATCTGAATTCCGGTCTCCC
DNA 2: TGGTGGCTACGACGGGATT
B2: GACAAGG (DNA:RNA)
RNA: B1 RNA with G26A, U27C, C28A, C29A, U30G
DNA 1: CAATCTGAATTCCGGTCTCCC
DNA 2: TGGTGGCTACGACGGGATT
B3: ACUGCCG (DNA:RNA)
RNA: B1 RNA with G25A, G26C, C28G, U30C
DNA 1: CAATCTGAATTCCGGTCTCCC
DNA 2: TGGTGGCTACGACGGGATT
B4: UGGACUU (DNA:RNA)
RNA: B1 RNA with G25U, U27G, C28A, G31U
DNA 1: CAATCTGAATTCCGGTCTCCC
DNA 2: TGGTGGCTACGACGGGATT
B5: AAAGCCA (DNA:RNA)
RNA: B1 RNA with G25A, G26A, U27A, C28G, U30C, G31A
DNA 1: CAATCTGAATTCCGGTCTCCC
DNA 2: TGGTGGCTACGACGGGATT
B6: CAGAUUG (DNA:RNA)
RNA: B1 RNA with G25C, G26A, U27G, C28A, C29U
DNA 1: CAATCTGAATTCCGGTCTCCC
DNA 2: TGGTGGCTACGACGGGATT
B7: GCCUCGG (DNA:RNA)
RNA: B1 RNA with G26C, U27C, C28U, U30G
DNA 1: CAATCTGAATTCCGGTCTCCC
DNA 2: TGGTGGCTACGACGGGATT
B8: CAACAAG (DNA:RNA)
RNA: B1 RNA with G25C, G26A, U27A, C29A, U30A
DNA 1: CAATCTGAATTCCGGTCTCCC
DNA 2: TGGTGGCTACGACGGGATT
B9: GCAAGAG (DNA:RNA)
RNA: B1 RNA with G26C, U27A, C28A, C29G, U30A
DNA 1: CAATCTGAATTCCGGTCTCCC
DNA 2: TGGTGGCTACGACGGGATT

The target in this experiment is T1, RBFOX1 RRM RbFoxmut (Fox-RRM*) (Homo sapiens, UniProt Q9NWB1 109-208, R118D;E147R;N151S;E152T).
T1 sequence: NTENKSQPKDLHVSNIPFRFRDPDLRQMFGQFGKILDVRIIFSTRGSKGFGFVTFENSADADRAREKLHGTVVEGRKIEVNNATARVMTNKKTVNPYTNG
The experiment is described as follows: EMSA; HiTS-Eq, 1 nM pool, 10 min; buffer printed only for the single-RNA assays: 10 mM Tris pH 7.5, 150 mM NaCl, 3.4 mM EDTA, 0.001% NP-40, 30 C. As to conditions: tags: His6 N-terminal (pET28a); label: 5' 32P. The method in brief:
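These values rest on relative association constants, computed from read-count changes of each RNA species versus the control reaction and normalised to the cognate motif. Reads came from free RNA recovered by 8% native PAGE after purified RbFox RRM (wild type or mutant) at increasing concentrations was equilibrated for 10 min in 50 µL with 1 nM of a 5′-radiolabelled pool with 7 randomized nucleotides and DNA-annealed flanks.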
A general note: A gel shift assay detects complexes by their altered migration in electrophoresis.
B1: the binding signal is 0.167 KA relative to UGCAUGU.
Regarding B2, the binding signal is 0.0473 KA relative to UGCAUGU.
As for B3, the figure is 0.1 KA relative to UGCAUGU; as for B4, 0.0671 KA relative to UGCAUGU; as for B5, 0.101 KA relative to UGCAUGU.
Turning to B6, the binding signal is 0.225 KA relative to UGCAUGU.
The same measure for B7: 0.14 KA relative to UGCAUGU; for B8: 0.0693 KA relative to UGCAUGU; for B9: 0.0911 KA relative to UGCAUGU.
